# Assay results taken from article PMC4336329 (PLoS ONE, 2015).
# About 2,200 (0.71%) of roughly 310,000 compounds showed an effect of 50% or more. The effect is printed as a negative number. Some of the results follow.
# Biological target: human ether-à-go-go-related gene (hERG) potassium channel (human, UniProt Q12809)
# Assay: primary screen, population patch clamp on CHO cells stably expressing hERG
# Chain of human ether-à-go-go-related gene (hERG) potassium channel (Q12809 whole entry, looked up): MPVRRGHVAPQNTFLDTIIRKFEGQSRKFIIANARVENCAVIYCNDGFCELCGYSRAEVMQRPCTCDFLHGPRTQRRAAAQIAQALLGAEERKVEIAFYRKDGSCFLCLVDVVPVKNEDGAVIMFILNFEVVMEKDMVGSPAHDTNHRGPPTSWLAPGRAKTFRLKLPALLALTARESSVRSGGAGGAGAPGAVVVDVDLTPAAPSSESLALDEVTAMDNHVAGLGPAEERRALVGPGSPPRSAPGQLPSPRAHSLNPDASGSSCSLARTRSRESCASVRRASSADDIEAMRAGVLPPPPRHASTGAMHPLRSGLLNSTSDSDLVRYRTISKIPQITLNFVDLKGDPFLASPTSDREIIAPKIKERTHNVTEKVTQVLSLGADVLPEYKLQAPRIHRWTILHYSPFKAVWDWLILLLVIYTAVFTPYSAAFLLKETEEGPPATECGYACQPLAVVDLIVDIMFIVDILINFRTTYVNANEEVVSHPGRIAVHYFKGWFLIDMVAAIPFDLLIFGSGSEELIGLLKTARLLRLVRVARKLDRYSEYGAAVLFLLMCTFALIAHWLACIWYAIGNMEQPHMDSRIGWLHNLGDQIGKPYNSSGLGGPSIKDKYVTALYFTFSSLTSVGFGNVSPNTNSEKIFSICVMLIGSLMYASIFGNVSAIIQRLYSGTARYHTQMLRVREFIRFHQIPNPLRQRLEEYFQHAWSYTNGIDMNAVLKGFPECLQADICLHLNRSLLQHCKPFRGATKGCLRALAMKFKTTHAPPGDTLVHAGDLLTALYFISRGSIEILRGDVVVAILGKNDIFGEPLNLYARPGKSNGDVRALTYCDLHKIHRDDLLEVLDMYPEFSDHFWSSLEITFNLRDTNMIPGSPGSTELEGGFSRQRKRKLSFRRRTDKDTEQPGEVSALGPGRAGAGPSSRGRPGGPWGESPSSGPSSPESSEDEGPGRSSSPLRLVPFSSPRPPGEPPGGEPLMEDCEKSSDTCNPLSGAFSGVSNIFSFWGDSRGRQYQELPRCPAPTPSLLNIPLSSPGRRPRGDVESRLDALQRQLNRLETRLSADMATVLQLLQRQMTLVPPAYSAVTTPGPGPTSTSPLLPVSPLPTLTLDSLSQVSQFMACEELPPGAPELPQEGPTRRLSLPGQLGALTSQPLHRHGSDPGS
row,SMILES,"hERG current change (%, negative = inhibition) at 1uM"
1,Cc1ccc(CN2CCN(Cc3ccccc3)CC2)cc1,-2.6%
2,O=C(CSCCc1ccccn1)Nc1cccnc1,7.58%
3,COc1ccccc1CNC(=O)/C(C#N)=C/c1ccc(OC)c(OC)c1OC,11.7%
4,COc1ccc(CCNC(=O)c2c(O)c3c([nH]c2=O)CCCC3)cc1,8.46%
5,C=C(C)c1cccc(C(C)(C)NC(=O)N2CCN(c3ccccn3)CC2)c1,1.68%
6,CCN(CC)c1ccc(/C=N/N2CC(=O)NC2=S)cc1,12.8%
7,Clc1ccc(CCNc2nc3ccccc3n3nnnc23)cc1,-7.21%
8,Cl.O=C(O)c1ccc(Nc2c3ccccc3nc3ccccc23)cc1,10.9%
9,C/C=C1/C[N+]2(C)CCC34C(=C(C=O)[C@H]1C[C@@H]32)Nc1ccccc14.[Cl-] (stereo partly shown),12.4%
10,CCOc1ccccc1NC(=O)CCN(c1ccc(C)cc1)S(=O)(=O)c1ccccc1,6.15%
11,Cc1cccc(/C=N/n2c(COc3ccccc3)n[nH]c2=S)c1,14.9%
12,O=C(CN1C(=O)S/C(=C\c2ccc(F)cc2)C1=O)Nc1cccc(S(=O)(=O)NCc2ccco2)c1,3.98%
13,O=C(O)c1cccc2c1NC(C(=O)O)C1CC(Sc3ccccc3[N+](=O)[O-])C(Cl)C21 (stereo not shown),10.4%
14,CCN1CCN(C(=O)c2cc3c(=O)n4ccccc4nc3s2)CC1,8.05%
15,CCCOc1ccc(/C=c2\sc3nc(-c4ccco4)nn3c2=O)cc1OCC,5.32%
16,CCOc1ccc(N=C2NN=C(c3cc(C)n(CC4CCCO4)c3C)CS2)cc1 (stereo not shown),10.8%
17,CN(Cc1ccc(-n2cccn2)cc1)Cc1cn(C)nc1-c1ccccc1F,-63.5%
18,CCOc1ccc(N(CC(=O)NCc2ccco2)S(=O)(=O)c2ccc(OC)c(OC)c2)cc1,6.77%
19,COC(=O)C1CC(=O)N(c2ccc(C)cc2)C1 (stereo not shown),4.3%
20,O=P(O)(CCc1ccccc1)C(O)c1ccccc1 (stereo not shown),5.09%
21,Cc1cc2c(=O)n(Cc3ccco3)c(SCC(=O)c3ccc(Cl)s3)nc2s1,4.71%
22,CCC(=O)Nc1ccc(S(=O)(=O)N2CCc3ccccc3C2)cc1,5.47%

row,SMILES,"hERG current change (%, negative = inhibition) at 1uM"
1,Cc1ccc(N2C(=O)CC(N3CCN(C4CCc5ccccc5C4)CC3)C2=O)cc1 (stereo not shown),-59%
2,CN(C)S(=O)(=O)c1ccc2c(c1)Cc1cc(S(=O)(=O)N(C)C)ccc1-2,10.2%
3,CO[C@H]1O[C@@H]2O[C@@]3(C)CC[C@H]4[C@H](C)CC[C@@H]([C@H]1C)[C@@]24OO3,20.2%
4,O=C1N(CCCl)c2ccc(Br)cc2C12OCCO2,16.7%
5,Cc1ccc(S(=O)(=O)N(C)/N=C/c2ccc(N(C)C)cc2)cc1,6.26%
6,CCOc1ccc(CCNC(=O)c2ccc(OCc3c(C)noc3C)cc2)cc1OCC,14%
7,COc1ccc(/C=C/c2c([N+](=O)[O-])c(=O)n(C)c(=O)n2C)cc1OC,5.36%
8,CCOC(=O)C1CCN(C(=O)Cn2nc(C)n3c(cc4cc(C)ccc43)c2=O)CC1,4.86%
9,O=C(Nc1nccs1)c1ccc(Br)s1,13.4%
10,Cc1ccc(Cn2nnnc2CN2CCC(O)(c3ccccc3F)CC2)cc1,-2.96%
11,CCOc1ccc(C2C3=C(CC(C)(C)CC3=O)N(CC(=O)O)C3=C2C(=O)CC(C)(C)C3)cc1OCC,5.01%
12,COCCn1c(=NC(=O)CCS(=O)(=O)c2ccccc2)sc2ccccc21,3.57%
13,CCN(Cc1ccccc1)S(=O)(=O)c1ccc(S(=O)(=O)N2CCN(C)CC2)cc1,12.8%
14,CCCSc1nnc2n(-c3ccccc3OC)c(=O)c3c4c(sc3n12)CCC4,-6.18%
15,Cc1nc2ccc(NS(=O)(=O)c3ccc(C)c(C)c3)cc2s1,10.6%
16,CN(C)c1ccc(-c2nnn(CC(=O)Nc3ccc4c(c3)OCCO4)n2)cc1,23.8%
17,Nc1nonc1NN=C1CCCCC1,14.6%
18,CC(C)CC1(C(=O)NCc2ccccn2)C=CCN1C(=O)c1ccccc1 (stereo not shown),11.3%
19,FC(F)(F)c1nc2ccccc2n2c(-c3ccc(Cl)cc3Cl)nnc12,20.4%
20,O=C(CCc1nc2ccccc2c(=O)[nH]1)Nc1nc(-c2cccs2)cs1,2.05%
21,C/C(N)=C(/C#N)C(=O)COC(=O)C1CCN(C(=O)c2ccc(Cl)cc2)CC1,6.14%
22,Cn1c(=O)c2c(nc(NCc3cccnc3)n2Cc2cccc(C(F)(F)F)c2)n(C)c1=O,6.35%

row,SMILES,"hERG current change (%, negative = inhibition) at 1uM"
1,CCOc1ccc2[nH]cc(C(=O)NCCCN3CCOCC3)c(=O)c2c1,5.98%
2,O=[N+]([O-])c1ccc(N2CCN(CCOc3nonc3-c3ccccc3)CC2)c(Cl)c1,8.86%
3,Cc1ccc(C(=O)NC(C)c2ccc(-n3ccnc3)cc2)c(C)c1 (stereo not shown),-18.4%
4,CCCCNC(=O)C(=O)N/N=C/c1cccc(Br)c1,3.29%
5,COc1ccc(C(=O)NCc2nnc(SCC(=O)Nc3cc(C)on3)o2)cc1OC,5.06%
6,O=C(COc1ccccc1Cl)Nc1ccc(C(=O)N2CCCCC2)cc1,-3.76%
7,N#CCCn1ncc2ccccc21,14%
8,CC(C)(C)Nc1nc2nonc2nc1NC(C)(C)C,12.2%
9,CCOC(=O)c1c(-c2ccccc2)oc2ccc(OCC)cc12,10.8%
10,O=C(CC1C(=O)NCCN1CC(c1ccccc1)c1ccccc1)NC1CC1 (stereo not shown),29.1%
11,COc1ccccc1C(=O)NCCC(=O)Nc1cccc(C)n1,10.9%
12,CSc1ccc(/C=C/C(=O)OCC(=O)c2ccc[nH]2)cc1,8.26%
13,O=C(CCCCCN1C(=O)c2ccccc2C1=O)Nc1ccccc1,5.83%
14,Oc1c(C(c2ccccn2)N2CCOCC2)ccc2cccnc12 (stereo not shown),20.1%
15,CN(Cc1cccnc1)C(=O)CC1C(=O)NCCN1Cc1ccc(-c2ccccc2)cc1 (stereo not shown),2.2%
16,COc1cc(OC)c(-c2nc3c[n+](CC(=O)c4ccccc4)ccc3n2C)cc1OC.[Br-],12%
17,Oc1ccccc1-c1nc(NCCN2CCOCC2)c2ccccc2n1,13%
18,CCN(CC)c1nc(-c2nn[nH]n2)nc(N(CC)CC)n1,15%
19,COc1cccc(NC(=O)N2C3CCCC2CC(NC(=O)C2CC2)C3)c1 (stereo not shown),12%
20,CC1Cn2c(nc(=O)c3c2NCN(CCc2ccccc2)C3)S1 (stereo not shown),12.1%
21,CC(C)Oc1ccc(S(=O)(=O)N2CCCCC2)cc1NC(=O)C1CSC2(C)CCC(=O)N12 (stereo not shown),15.1%
22,O=C(NCCC1CCCCN1S(=O)(=O)c1ccccc1)C(=O)NCc1ccccc1 (stereo not shown),1.97%

row,SMILES,"hERG current change (%, negative = inhibition) at 1uM"
1,COc1cc2c(C(=O)N3CCCc4ccccc43)cn(C)c(=O)c2cc1OC,7.48%
2,Cc1cc(=O)n2c3c(cccc13)CCC2,1.5%
3,COCCCNC(=O)c1cc(=O)n(Cc2ccc(Cl)cc2)c2ccccc12,3.45%
4,O=C(O)C1CC(=O)N(Cc2ccc3c(c2)OCO3)C1 (stereo not shown),6.73%
5,CN(C)c1cc(Nc2ccc(O)cc2)c([N+](=O)[O-])c2nonc12,3.47%
6,CCOCCCNC(=O)Cc1ccc(-n2c(CC)nc3cccnc32)cc1,2%
7,CCN(c1ccc(F)cc1)S(=O)(=O)c1ccc2[nH]cc(C(=O)NCCCN3CCOCC3)c(=O)c2c1,7.75%
8,CC(C)Sc1nc2ccccc2c(=O)[nH]1,2.04%
9,O=C1CCC/C(=N/Nc2ccc(Cl)cc2)C1,9.45%
10,Cc1cc(NC(=O)CSc2ccc(-c3ccc4c(c3)OCO4)nn2)no1,18.3%
11,CCOC(=O)Cn1c(=NC(=O)C2CC2)sc2c(C)cc(C)cc21,14.3%
12,O=C(OCC#Cc1c(COC(=O)c2ccccc2)nnn1Cc1ccccc1)c1ccccc1,3.27%
13,COc1ccc(S(=O)(=O)Nc2nc3ccccc3nc2NCC2CCCO2)cc1 (stereo not shown),14.1%
14,Cc1cnc(NS(=O)(=O)c2ccccc2)c(C)n1,14.7%
15,CCCCNS(=O)(=O)NC(=O)C1=C(N2CCCC2)COC1=O,8.9%
16,Cc1c(N2C(=O)CSC2c2ccc([N+](=O)[O-])cc2)c(=O)n(-c2ccccc2)n1C (stereo not shown),9.13%
17,Cc1ccc2nc(-c3ccc(NC(=O)CSc4ccccc4)cc3)[nH]c2c1,15%
18,Cc1cc(C)nc(SCc2ccc(C(=O)NNC(=O)Nc3cccc(Cl)c3)cc2)n1,11.9%
19,CC(=C/c1ccc(C(C)C)cc1)/C=N/NC(=O)CSc1ccccn1,4.79%
20,O=C(NC1CCc2ccccc21)c1cc(COc2cncc(Cl)c2)on1 (stereo not shown),9.93%
21,CC1=NN(c2ccccc2)C(=O)C1(C)[N+](=O)[O-] (stereo not shown),14.6%
22,CC1(C)CC(=O)C(C=NCCN2CCN(CC(=O)Nc3ccc(Cl)cc3)CC2)=C(O)C1,2.52%
